Measured values from PubChem BioAssay AID360 (National Center for Advancing Translational Sciences (NCATS), 2006).
Among all 48,000 compounds or so, about 550 (1.1%) were called active. Another 4% or so got no clear call; they are omitted. Rule as the data show it: active = potency below about 15 µM; inconclusive = mostly about 16 µM to 33 µM; inactive = weaker than that. Some of the results follow.

Target: Lysosomal acid glucosylceramidase (Homo sapiens) (UniProt P04062)
Experiment: Glucocerebrosidase;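 also: the screen sought inhibitors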
Details: purified enzyme, resorufin glucoside fluorescence (screen aimed at inhibitors), 20 min
How it was run: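 Wild-type enzyme at 0.2 nM final in 50mM citric acid/KH2PO4, 10mM sodium taurocholate, 0.01% tween-20, pH 5.9, with resorufin beta-D-glucopyranoside at 30 uM final. Compounds titrated, 20 min at RT, red fluorescence read; AC50 from titration.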
Potency is read from the fitted curve at half-maximal effect.

Chain of UniProt P04062 (P04062 whole entry, looked up): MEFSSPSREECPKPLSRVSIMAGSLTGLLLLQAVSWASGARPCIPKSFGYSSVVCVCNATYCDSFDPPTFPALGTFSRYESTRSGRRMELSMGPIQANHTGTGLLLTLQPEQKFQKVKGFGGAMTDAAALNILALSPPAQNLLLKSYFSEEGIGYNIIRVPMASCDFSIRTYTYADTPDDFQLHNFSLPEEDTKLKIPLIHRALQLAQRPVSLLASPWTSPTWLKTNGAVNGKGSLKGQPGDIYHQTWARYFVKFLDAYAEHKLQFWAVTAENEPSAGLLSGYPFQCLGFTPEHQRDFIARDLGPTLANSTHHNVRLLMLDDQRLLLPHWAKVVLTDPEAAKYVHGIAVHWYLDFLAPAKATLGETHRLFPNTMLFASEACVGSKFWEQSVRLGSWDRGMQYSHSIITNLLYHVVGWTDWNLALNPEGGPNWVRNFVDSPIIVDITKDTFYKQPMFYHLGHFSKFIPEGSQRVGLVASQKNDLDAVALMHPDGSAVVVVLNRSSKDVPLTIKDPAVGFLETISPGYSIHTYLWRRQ

| SMILES | Potency |
| --- | --- |
| Cn1c(=O)n(C)c2cc(NS(C)(=O)=O)ccc21 | inactive: > 76.9 µM |
| COc1ccc(Oc2c(C)oc3cc(OC(=O)N4CCOCC4)ccc3c2=O)cc1 | inactive: > 76.9 µM |
| Cn1cc(C(=O)NCCc2ccccc2)c(=O)c2cc(S(=O)(=O)N3CCOCC3)ccc21 | inactive: > 76.9 µM |
| Oc1ccc(COCc2ccccc2)c2cccnc12 | inactive: > 76.9 µM |
| COC(=O)c1ccc2nc(C(F)(F)F)[nH]c2c1 | inactive: > 76.9 µM |
| COc1ccccc1NC(=O)c1oc2ccccc2c1NC(=O)c1cc(OC)c(OC)c(OC)c1 | inactive: > 76.9 µM |
| O=C(COC(=O)C1(c2ccccc2F)CCCC1)N1CCN(C(=O)c2ccco2)CC1 | inactive: > 76.9 µM |
| C/C(=C\C(=O)Nc1nccs1)c1ccccc1 | inactive: > 76.9 µM |
| C=CCNc1nc(Nc2ccc(OC)cc2OC)nc(OCC)n1 | inactive: > 76.9 µM |
| Cc1nc(SCc2cccc(F)c2)[nH]c(=O)c1C#N | inactive: > 76.9 µM |
| CCc1ccc2[nH]c(=O)c(CN(Cc3ccc4c(c3)OCO4)C(=O)c3ccco3)cc2c1 | inactive: > 76.9 µM |
| COc1ccc(C(=O)Cn2c(=O)c(CCC(=O)O)nn3c4ccccc4nc23)cc1OC | inactive: > 76.9 µM |
| COc1ccc(-c2c(C)n([O-])c(C)c(C)[n+]2=O)cc1OC | inactive: > 76.9 µM |
| COC(=O)Cc1c(C)c2ccc(OCC(=O)N3CCOCC3)cc2oc1=O | inactive: > 76.9 µM |
| O=c1[nH]c(=S)[nH]nc1Cc1ccccc1 | inactive: > 76.9 µM |
| Cc1cc(C)nc(N2CCCC(C(=O)Nc3cc(F)ccc3C)C2)n1 (centres undefined) | inactive: > 76.9 µM |
| CCc1ccccc1N(CC)C(=O)c1cn(C)c(=O)c2cc(OC)c(OC)cc12 | inactive: > 76.9 µM |
| CCNC(=O)C1CN(S(=O)(=O)c2ccccc2)CCN1S(=O)(=O)c1ccccc1 (centres undefined) | inactive: > 76.9 µM |
| O=C(C1=C(O)C(=O)N(CCN2CCOCC2)C1c1cccs1)c1cc2ccccc2o1 (centres undefined) | inactive: > 76.9 µM |
| Cc1cc(Cl)c(S(=O)(=O)NCc2ccncc2)cc1OCC(N)=O | inactive: > 76.9 µM |
| Cc1nn(-c2ccccc2)c2c1C(c1c(C)[nH]c(C#N)c1C)C(C#N)=C(N)O2 (centres undefined) | active: 11 µM |
| COCC(=O)NCc1nc2ccccc2n1Cc1ccccc1F | inactive: > 76.9 µM |
| O=C(Nc1nncs1)c1ccc(S(=O)(=O)c2ccccc2)cc1 | inactive: > 76.9 µM |

| SMILES | Potency |
| --- | --- |
| COc1cc2cc(CN(Cc3nnnn3Cc3ccco3)C3CCCCC3)c(=O)[nH]c2cc1OC | inactive: > 76.9 µM |
| Cc1cc(C(=O)CN2C(=O)NC(C)(c3cccc(Br)c3)C2=O)c(C)n1Cc1ccco1 (centres undefined) | inactive: > 76.9 µM |
| CN=C1SC(CC(=O)Nc2cccc(C(F)(F)F)c2)C(=O)N1C (centres undefined) | inactive: > 76.9 µM |
| CCOC(=O)CNC(=O)c1cc(C)oc1C | inactive: > 76.9 µM |
| CCCC(=O)c1cc2cc(Cl)ccc2oc1=O | inactive: > 76.9 µM |
| CCC(C)(C)n1nnnc1C(c1ccc(N(C)C)cc1)N1CCN(C2CCCCC2)CC1 (centres undefined) | inactive: > 76.9 µM |
| N#CCCN(Cc1cccnc1)S(=O)(=O)c1ccc(S(=O)(=O)NC2CCCCC2)cc1 | inactive: > 76.9 µM |
| c1ccc2nc(-c3nc4ccccc4[nH]3)ccc2c1 | inactive: > 76.9 µM |
| CCSc1nc2c(c(=O)[nH]c(=O)n2C)n1CC(O)COc1ccccc1C (centres undefined) | inactive: > 76.9 µM |
| CN1CCN(CCCNc2nc3ccccc3c3nc(-c4ccccc4)nn23)CC1 | inactive: > 76.9 µM |
| COCCOC(=O)C1=C(N)OC2=C(C(=O)CCC2)C1c1cccnc1 (centres undefined) | inactive: > 76.9 µM |
| O=C(COC(=O)CN1C(=O)c2ccccc2C1=O)Nc1ncc(Cl)cc1Cl | inactive: > 76.9 µM |
| O=C(CC1N=C2c3ccccc3N=C(SCc3ccc(Cl)cc3)N2C1=O)NCc1ccco1 (centres undefined) | inactive: > 76.9 µM |
| O=C(NCc1ccc(F)cc1)c1cc(-c2cccs2)on1 | inactive: > 76.9 µM |
| CCOC(=O)C1=C(CSc2nccn2C)NC(=O)NC1c1ccc2c(c1)OCO2 (centres undefined) | inactive: > 76.9 µM |
| CCOC(=O)C12CNC(=O)C(C(=O)OCC)(CNC1=O)C2 | inactive: > 76.9 µM |
| COc1cc(NS(=O)(=O)c2ccc(C)cc2)ccc1-n1cnnn1 | inactive: > 76.9 µM |
| CCSc1nc(O)c(C2OC(=O)c3c2ccc(OC)c3OC)c(=O)n1CC (centres undefined) | inactive: > 76.9 µM |
| Cc1ccc(Cl)cc1N1CCN(C(=O)C2CCN(S(=O)(=O)c3c(C)nn(C)c3C)CC2)CC1 | inactive: > 76.9 µM |
| OCC1OC(n2nnc3ccccc32)C(O)C(O)C1O (centres undefined) | inactive: > 76.9 µM |
| CN1CCCN(C(=O)c2ccc(Cl)c(S(=O)(=O)N(C)c3ccccc3)c2)CC1 | inactive: > 76.9 µM |
| Cc1ccc(N2CCN(c3ccc(C)cc3)C2c2ccncc2)cc1 | inactive: > 76.9 µM |
| CCOC(=O)CC(=O)CSc1nc2nc(C)cc(C)n2n1 | inactive: > 76.9 µM |

| SMILES | Potency |
| --- | --- |
| COc1ccc(NC(=O)N2CCCCC2)cc1 | inactive: > 76.9 µM |
| COC(=O)c1ccccc1NC(=O)CN1CCC(C(=O)c2ccc3c(c2)OCCO3)CC1 | inactive: > 76.9 µM |
| CC(C)C(NC(=O)C1CCCCC1)C(=O)Nc1ccc2c(c1)OCCO2 (centres undefined) | inactive: > 76.9 µM |
| N#Cc1nc(-c2ccc(OCc3ccc(Cl)cc3)cc2)oc1N1CCOCC1 | inactive: > 76.9 µM |
| Cn1c(=O)c(NCCO)c2c3c(cccc31)C(=O)c1ccccc1-2 | inactive: > 76.9 µM |
| COCCn1nnnc1C(C(C)C)N(Cc1cccnc1)Cc1ccccc1Cl (centres undefined) | inactive: > 76.9 µM |
| CCc1cc2c(NCC(=O)O)ncnc2s1 | inactive: > 76.9 µM |
| Cc1cc(=O)oc(C)c1C(=O)NCCCN1CCN(c2ccccc2F)CC1 | inactive: > 76.9 µM |
| CCOC(=O)C1C(c2ccc(C)o2)NC(=O)NC1(O)C(F)(F)F (centres undefined) | inactive: > 76.9 µM |
| CCOc1ccc(NC(=O)c2cc3n(n2)C(C(F)(F)F)CC(c2ccco2)N3)cc1 (centres undefined) | inactive: > 76.9 µM |
| Cc1cccc(NC(=O)CS(=O)(=O)c2cn(C)c3ccccc23)c1C | inactive: > 76.9 µM |
| O=C(CN1CCC(n2nnc3cc(F)ccc32)CC1)N1CCc2ccccc2C1 | inactive: > 76.9 µM |
| O=S(=O)(NCCCCCNS(=O)(=O)c1ccc(F)cc1)c1ccc(F)cc1 | inactive: > 76.9 µM |
| CCn1c(N)c(C(=O)NCc2ccco2)sc1=S | inactive: > 76.9 µM |
| O=C(CN1C2=NCCN2c2ccccc21)c1ccco1 | inactive: > 76.9 µM |
| CCOc1ccc(C(C)(N)C(=O)O)cc1 (centres undefined) | inactive: > 76.9 µM |
| C=CCn1c(N)c(C(=O)OCCC)c2nc3ccccc3nc21 | inactive: > 76.9 µM |
| CCn1c(COc2ccccc2C)nnc1SCC(=O)Nc1ccc2c(c1)OCCO2 | inactive: > 76.9 µM |
| c1cc2c(cc1C1CCCN1)OCCCO2 (centres undefined) | inactive: > 76.9 µM |
| Cc1ccc2oc(-c3ccccc3C(=O)O)cc(=O)c2c1 | inactive: > 76.9 µM |
| COC(=O)C(C(=O)Nc1ccc(OC)cc1)C1CCCCCC1 (centres undefined) | inactive: > 76.9 µM |
| Cc1cc(N2CCCC(C(=O)Nc3ccc4c(c3)CCC4)C2)n2ncnc2n1 (centres undefined) | inactive: > 76.9 µM |
| O=C(O)[C@@H]1CCCC[C@@H]1C(=O)N1CCc2ccccc2C1CN1C(=O)c2ccccc2C1=O (some centres undefined) | inactive: > 76.9 µM |

| SMILES | Potency |
| --- | --- |
| CCOC(=O)C(C(C)=O)C(c1ccc(OC)cc1)C(C(C)=O)C(=O)OCC (centres undefined) | inactive: > 76.9 µM |
| CCOc1ccc(C(=O)CN2CCN(S(=O)(=O)c3ccc(F)cc3)CC2)cc1 | inactive: > 76.9 µM |
| CCSc1nnc(Cc2cc(=O)[nH]c(=O)[nH]2)n1-c1cc(C)ccc1C | inactive: > 76.9 µM |
| CN(C)CCN1C(=O)c2oc3ccccc3c(=O)c2C1c1ccccc1 (centres undefined) | inactive: > 76.9 µM |
| COc1ccc(-c2noc(CCC(=O)NC3CCCCC3)n2)cc1OC | inactive: > 76.9 µM |
| CCCCC(=O)N=c1sc2cc(S(C)(=O)=O)ccc2n1C | inactive: > 76.9 µM |
| Cc1ccc(C)c(C(=O)NCCN(C)C)c1 | inactive: > 76.9 µM |
| O=C(NC1CCCCC1NC(=O)c1cccs1)c1cccs1 (centres undefined) | inactive: > 76.9 µM |
| Cc1sc2c(=O)n3c(nc2c1C(=O)NCCCN1CCOCC1)CCCCC3 | inactive: > 76.9 µM |
| Cc1ccc(CNC(=O)CN2CCC(C(N)=O)CC2)cc1 | inactive: > 76.9 µM |
| O=C(NCC(c1cccnc1)N1CCN(c2ccc(F)cc2)CC1)c1ccc2c(c1)OCO2 (centres undefined) | inactive: > 76.9 µM |
| CSCCC(NC(=O)CCN1C(=O)c2ccccc2C1=O)C(=O)O (centres undefined) | inactive: > 76.9 µM |
| CC(C)CCC(C(=O)O)C(C)CC(=O)NC1CCCCC1 (centres undefined) | inactive: > 76.9 µM |
| CCc1ccccc1OCc1nnc(N)s1 | inactive: > 76.9 µM |
| Cc1ccc(S(=O)(=O)NC(CC(=O)N2CCOCC2)c2ccco2)cc1 (centres undefined) | inactive: > 76.9 µM |
| Cc1ccc(N2CCCn3c2nc2c3c(=O)n(CCN3CCOCC3)c(=O)n2C)cc1 | inactive: > 76.9 µM |
| CCOC(=O)c1ccoc1CSCC(=O)N1CCN(S(=O)(=O)c2ccc(C)cc2)CC1 | inactive: > 76.9 µM |
| Cc1cc2c(c(=O)n1Cc1cccnc1)C(Cc1ccccc1)C(C#N)=C(N)O2 (centres undefined) | inactive: > 76.9 µM |
| Cc1cc(=O)n2nc(N3CCCC3C(=O)NCCCN3CC(C)CC(C)C3)sc2n1 (centres undefined) | inactive: > 76.9 µM |
| CCOC(=O)COc1ccc(-c2nnc(-c3ccccc3)o2)cc1 | inactive: > 76.9 µM |
